About 150 (0.041%) of roughly 370,000 compounds were called active. The inconclusive results got no clear call from the source; some entries with a clear call stand among them for comparison. Calls follow the shape of the dose curve; as a rule, active = well fitted inhibition curve with a large enough effect; inconclusive = small, poorly fitted or top-dose-only effect; inactive = flat fitted curve, though single readings scatter. No potency is given beside an inconclusive call; the fits are too rough.
Target: Beta-lactamase (Escherichia coli (strain K12)) (UniProt P00811)
Experiment: qHTS Inhibitors of AmpC Beta-Lactamase (assay with detergent); also: nearly all actives have a fitted effect of over 25% in size
Settings: AmpC hydrolysis of nitrocefin, absorbance 480 nm, 0.01% Triton; series mostly up to 114 µM
In short: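 AmpC (5.3 nM in the dispensed reagent) in 20 mM phosphate pH 7.0 with 0.01% (detergent screen) or 0.0001% Triton X-100 was preincubated with compounds for 15 min at room temperature. Nitrocefin was then added from an 800 uM solution, and hydrolysis was followed at 480 nm.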
Potency is read from the fitted curve at half-maximal effect; tags tell the direction and shape of the fitted curve.

Chain of UniProt P00811 (P00811 whole entry, looked up): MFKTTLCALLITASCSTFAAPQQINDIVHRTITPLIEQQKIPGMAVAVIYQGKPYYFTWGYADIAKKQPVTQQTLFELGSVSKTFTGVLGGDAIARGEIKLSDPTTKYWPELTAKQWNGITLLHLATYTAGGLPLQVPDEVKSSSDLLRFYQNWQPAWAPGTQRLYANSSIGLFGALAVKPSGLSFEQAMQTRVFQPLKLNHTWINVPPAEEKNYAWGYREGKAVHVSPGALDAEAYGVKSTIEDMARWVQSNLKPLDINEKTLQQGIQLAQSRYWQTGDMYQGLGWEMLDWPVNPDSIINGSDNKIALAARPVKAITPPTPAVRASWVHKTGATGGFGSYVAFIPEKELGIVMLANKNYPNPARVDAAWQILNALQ

SMILES	Potency
CCCCC(=O)NC1(C(F)(F)F)C(=O)N(CC(C)C)C2=C1C(=O)CC(C)(C)C2 (stereo not given)	inconclusive [inhibitor, partial curve, poor fit]
Cc1nc(N2CCN(c3ccccc3)CC2)nc2c1C(=O)CC(c1ccccc1)C2 (stereo not given)	inconclusive [inhibitor, partial curve, poor fit]
CCOC(=O)c1c(NC(=O)C2=C(C)NC(=S)NC2c2ccc(C)cc2)sc(C)c1C (stereo not given)	inconclusive [inhibitor, single point]
O=C(NC(=S)Nc1cccc(Cl)c1Cl)C1CC1	inconclusive [inhibitor, partial curve, poor fit]
O=C(CC1C(=O)OCN1C(=O)OCc1ccccc1)OCC(=O)c1ccccc1 (stereo not given)	inconclusive [inhibitor, partial curve, poor fit]
CCOC(=O)c1c(-c2ccccc2)csc1NC(=O)CSc1nncs1	inactive
CCC(=O)Nc1cccc(NC(=S)NC(=O)c2ccc(Cl)cc2)c1	inconclusive [inhibitor, partial curve, poor fit]
C(=N\NC1=Nc2cccc3cccc1c23)/c1ccccn1	inconclusive [inhibitor, full curve]
CCOC(=O)C1=C(C)NC(SCC(N)=O)=C(C#N)C1c1ccncc1 (stereo not given)	inconclusive [inhibitor, full curve, poor fit]
CCn1nc(C)cc1C(=O)N1CCCC(N2CCN(c3cccc(Cl)c3)CC2)C1 (stereo not given)	inactive
CCc1cc(=O)[nH]c(SCc2cccc3ccccc23)n1	inconclusive [inhibitor, partial curve, poor fit]
Cc1ccc2c(c1)c1c(n2CC2COC(C)(C)O2)C(=O)CCC1 (stereo not given)	inconclusive [inhibitor, partial curve, poor fit]
COc1cccc(N2CCN(C(=O)Nc3ccccc3Cl)CC2)c1	inconclusive [inhibitor, single point]
CCOC(=O)N1CCN(C(=O)CSc2nc(=O)n3cccc(C)c3n2)CC1	inconclusive [inhibitor, full curve, poor fit]
COC(=O)c1cccc(Cn2c(Cl)c(/C=N/NC(=O)c3ccccc3Cl)sc2=O)c1	inactive
COc1ccc(/C=N/N=C2/NC(=O)CC(C(=O)O)S2)cc1 (stereo not given)	inconclusive [inhibitor, partial curve]
Cc1ccccc1NC(=O)NNC(=O)CCc1ccccc1	inconclusive [inhibitor, full curve]
COc1ccc2c(c1)CCc1c(C(=O)N3CC4(C)CC3CC(C)(C)C4)noc1-2 (stereo not given)	inconclusive [inhibitor, full curve]
COc1ccc(NC(=O)C(NS(=O)(=O)c2cccc3nsnc23)C(C)C)cc1 (stereo not given)	inconclusive [inhibitor, single point]
Cn1ccnc1SCC(=O)Nc1cccc(O)c1	inactive
CC/C(=C\c1oc2cc3ccccc3cc2[n+]1CC)Nc1ccccc1	inconclusive [inhibitor, full curve, poor fit]
COC1CCCN(C(=O)c2ccc3nc(Cc4cccc(Cl)c4)oc3c2)C1 (stereo not given)	inactive
N#Cc1c(N)nc2c3c(sc(=N)c2c1N)NC(=O)CC3c1c(F)cccc1Cl (stereo not given)	inactive

SMILES	Potency
O=C(N/N=C/c1ccc(F)cc1)c1ccc(Br)cc1	inactive
O=C(NC1CCSC1=O)c1cccc(C(=O)NC2CCSC2=O)c1 (stereo not given)	inconclusive [inhibitor, full curve, poor fit]
O=C(NC1CC2CCCC(C1)N2C(=O)Nc1ccccc1)c1ccncc1 (stereo not given)	inconclusive [inhibitor, full curve, poor fit]
S=C(NCCc1ccccn1)NC1CC2CCC1C2 (stereo not given)	inactive
CC(=O)Nc1cccc(NC(=O)CSc2ccc(-c3ccco3)nn2)c1	inactive
C/C(CC(=O)Nc1cccc2c1CCCC2)=N\NC(=O)c1ccccc1N	inactive
Cc1cccc(NC(=O)c2nc[nH]c2C(=O)N2CCN(C(=O)OC(C)(C)C)CC2)c1	inactive
O=C(c1ccccc1)c1c[nH]c2ccccc12	inactive
COc1ccc(C2CC(=O)C(C=NCCN3CCNCC3)=C(O)C2)cc1OC (stereo not given)	inconclusive [inhibitor, full curve, poor fit]
c1ccc(CCCN2CCOCC2)cc1	inconclusive [inhibitor, full curve, poor fit]
O=C(NNC(=O)c1ccc(NC(=O)c2ccccc2)cc1)c1ccc(F)cc1	inconclusive [inhibitor, full curve, poor fit]
COc1ccccc1C(=O)Nc1ccc2nc(SCCOc3ccccc3C)sc2c1	inactive
CC(=O)NCCNS(=O)(=O)c1ccc(C)c([N+](=O)[O-])c1	inconclusive [inhibitor, full curve, poor fit]
Cc1ccc2nsnc2c1NC(=O)CCl	inactive
Cc1oc2cc3oc(=O)c(CC(=O)N[C@H](C(=O)N[C@@H](C(=O)O)c4ccccc4)C(C)C)c(C)c3cc2c1C	inconclusive [inhibitor, partial curve, poor fit]
C=CCn1cccc(/C=C/C(=O)c2ccc(C(C)(C)C)cc2)c1=S	inconclusive [inhibitor, full curve, poor fit]
COc1cc(C(=O)Nc2ccc(NC(=O)c3ccc(C(C)(C)C)cc3)cc2)cc(OC)c1OC	inactive
O=C(/C=C/c1ccc(Cl)cc1)Nc1ccc(N2CCOCC2)cc1	inactive
CCC1Oc2ccc(C)cc2N(CC(=O)N(Cc2ccc3c(c2)OCO3)CC2CCCO2)C1=O (stereo not given)	inconclusive [inhibitor, full curve]
CCCOc1ccc(C(=O)N2CCCC2C(=O)O)cc1 (stereo not given)	inconclusive [inhibitor, partial curve]
CN(C)c1cccc(C(=O)N2CCC(c3c[nH]c4ccccc34)(c3c[nH]c4ccccc34)CC2)c1	inactive
C#CCSc1ncc(-c2ccccc2)cn1	inconclusive [inhibitor, partial curve]
